According to paper PMC7819943, “Rice protein-binding microarrays: a tool to detect cis-acting elements near promoter regions in rice”:
The list shows a part of the results.

These sequences were tested against T1, OsWOX13 (Oryza sativa, UniProt Q5QMM3 1-267) (assay: protein-binding microarray (RPBM); PBS, 2% BSA, 51.3 ng/ul salmon testes DNA, 50 uM zinc acetate, 200 nM TF, 25 C, 1 h; high values mean tight binding). Conditions: protein: recombinant; tags: N-terminal polyhistidine and DsRed monomer fusion (pET32a); label: CyDye5-dUTP incorporated in the synthesized complementary strand; 3' TTTTT single-stranded linker to array surface; dsDNA, one strand shown.
T1 sequence: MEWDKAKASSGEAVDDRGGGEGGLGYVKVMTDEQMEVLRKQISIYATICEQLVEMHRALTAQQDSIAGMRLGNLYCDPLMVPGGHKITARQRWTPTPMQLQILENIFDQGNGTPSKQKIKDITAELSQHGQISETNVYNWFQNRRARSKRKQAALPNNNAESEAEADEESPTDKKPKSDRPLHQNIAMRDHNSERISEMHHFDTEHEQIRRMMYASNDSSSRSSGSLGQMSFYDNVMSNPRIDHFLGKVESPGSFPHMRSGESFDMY
Procedure, shortened: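 Using Ni–NTA, transcription factors fused N-terminally to polyhistidine and DsRed were purified after expression in E. coli BL21-CodonPlus. These were incubated at 200 nM with a blocked, double-stranded custom Agilent array for 1 h at 25 °C in a buffer containing 50 µM zinc acetate, and the array was washed. The binding signal is per-feature fluorescence intensity (arbitrary units) on an Axon 4000B scanner.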

Sequence	binding signal
ATAAATGGGCTATTAGATTGACTATAAATGATTTGGAGCCCGGAGTCACCTAGTGCAG	57100 fluorescence intensity (a.u.)
TCGCAAAAGAAATATAATTAATTCACAATGTAATAGGACGCGGAGTCACCTAGTGCAG	3220 fluorescence intensity (a.u.)
CAGTGACAGAGCAAACCATGATTTGAGAGAAGGAGCATATCGGAGTCACCTAGTGCAG	9960 fluorescence intensity (a.u.)
CGTCGAAGGTGATTAGCGCGCACGCGTAGTGCCCGGGCCTCGGAGTCACCTAGTGCAG	4320 fluorescence intensity (a.u.)
AGGCACAATCATTGGAATATACGAATATAAGACAAGTGTGCGGAGTCACCTAGTGCAG	11700 fluorescence intensity (a.u.)
GCCAATCTATCAATCCACCCCTTTTAGCTAGTAAATCTATCGGAGTCACCTAGTGCAG	10700 fluorescence intensity (a.u.)
TAATCATAATTTTGTCAGTCCTTTTACATACCGACCTTGACGGAGTCACCTAGTGCAG	5420 fluorescence intensity (a.u.)
ACGAATTAATTAGGCTTAATAAATTCGTCTCGCAGTTTACCGGAGTCACCTAGTGCAG	35100 fluorescence intensity (a.u.)
CTAAAATTGTAGCAATTGACAAAACAATTGCAGTTTTATGCGGAGTCACCTAGTGCAG	11600 fluorescence intensity (a.u.)
TATATTTATTATTTGCAGTTAATTATGTTACAAATAATAACGGAGTCACCTAGTGCAG	4460 fluorescence intensity (a.u.)
GGTTTGCATGATAGACTCGTTACTGTCACAGGACCCTTGGCGGAGTCACCTAGTGCAG	4290 fluorescence intensity (a.u.)
TTTGATAGGGAGGATTGGCTCCAGCATTGTACGAGAACTACGGAGTCACCTAGTGCAG	19900 fluorescence intensity (a.u.)
AGTTCGCTGATCACCCAATCACCATTCGGTCTTCCATTCACGGAGTCACCTAGTGCAG	7150 fluorescence intensity (a.u.)
CATGATTCCATTTCCCCTCTAGTTTCTGTTCTGTTATTTACGGAGTCACCTAGTGCAG	4300 fluorescence intensity (a.u.)
GTCTTAATTAGAGATTTTATCCACCATTATTTCCATGGATCGGAGTCACCTAGTGCAG	40100 fluorescence intensity (a.u.)
CTCTGGTTTGATATCAATTAATCTGTGTCTATGTGTCGCACGGAGTCACCTAGTGCAG	22700 fluorescence intensity (a.u.)
TATCTGCCATTAATCATTGACTTGTACATCTGTCTTGCTACGGAGTCACCTAGTGCAG	4400 fluorescence intensity (a.u.)
AAAATTAAGATTAGTTTGCTCATTTAAAATGACAAGAAACCGGAGTCACCTAGTGCAG	5540 fluorescence intensity (a.u.)
ATTCCTTGATTTGTAACGTTCTTCTTGCATCTATTCTTCACGGAGTCACCTAGTGCAG	14400 fluorescence intensity (a.u.)
GTGATTGTGTGAATACGCGTTAAAGATGATTCCTTTATCGCGGAGTCACCTAGTGCAG	4230 fluorescence intensity (a.u.)
TCCCATTAATTAATTCGCTCCATTCCTGCACAATTAAAGTCGGAGTCACCTAGTGCAG	38200 fluorescence intensity (a.u.)
AAGAAAATAATTGATATAACAAGGAAGCATGGGATAGCTACGGAGTCACCTAGTGCAG	25500 fluorescence intensity (a.u.)
TACATATGTGAACATTAATCAATCTTTGGTACTATACGTACGGAGTCACCTAGTGCAG	3600 fluorescence intensity (a.u.)
ACGGCGTTATTTGATTGGATTGTATTGGATTTAACCTGGACGGAGTCACCTAGTGCAG	31100 fluorescence intensity (a.u.)
TTTAATTTCAGATTTATTTCATTTTCCGTAAGACCAACTTCGGAGTCACCTAGTGCAG	4160 fluorescence intensity (a.u.)
CTGCATTTTAGAATGATTTATTAAATCTCAAAAGTTTCAACGGAGTCACCTAGTGCAG	4640 fluorescence intensity (a.u.)
GAAATTTTCTTGTTCTGATTTGTGATTCGGACTTCTGCAGCGGAGTCACCTAGTGCAG	10200 fluorescence intensity (a.u.)

Sequence	binding signal
AACTAATTTAATTAAGCTCAAACGCATGCATGCTACTGTTCGGAGTCACCTAGTGCAG	34100 fluorescence intensity (a.u.)
TAAAATAAATTTATTTAAAAGTTTATATATCTAATGTTTACGGAGTCACCTAGTGCAG	16500 fluorescence intensity (a.u.)
TTTTGTGATTATCCATAAAATACTTATAGATACTAAAGTTCGGAGTCACCTAGTGCAG	10100 fluorescence intensity (a.u.)
AATCGAGTTGATTTGATAATCTTTCACCAAGATAAGTTTCCGGAGTCACCTAGTGCAG	16500 fluorescence intensity (a.u.)
TGAGCACCAAGAATCAATCAATCGAGCAGAAATTTGATCTCGGAGTCACCTAGTGCAG	7100 fluorescence intensity (a.u.)
TTAAATTGAACTGACCAAAATTATACAGTTGGATACTACTCGGAGTCACCTAGTGCAG	23700 fluorescence intensity (a.u.)
GGTTGCTGATTGTATCCTTTACTACTAGATCTTGACTGAGCGGAGTCACCTAGTGCAG	16300 fluorescence intensity (a.u.)
ACCAATTTATATGGCAAATGTGATCAATATAGACAGAATCCGGAGTCACCTAGTGCAG	3670 fluorescence intensity (a.u.)
TGACATAAAATAAACTGTAATTTATTTGTTTCTCTAGATTCGGAGTCACCTAGTGCAG	5760 fluorescence intensity (a.u.)
AGGTTGATTTTCTCATCAATAGTTTCCTATTTATGAATTACGGAGTCACCTAGTGCAG	12400 fluorescence intensity (a.u.)
TCTAATTTCTACACTGTCCTTTAGACTATTCAGTATACATCGGAGTCACCTAGTGCAG	3700 fluorescence intensity (a.u.)
TAACTCACCATCATCTCAATTAATTCACGTACGACGCATTCGGAGTCACCTAGTGCAG	3460 fluorescence intensity (a.u.)
TTCAATTTGAATGGATATTTAATGCCTTAAATTATCCTGCCGGAGTCACCTAGTGCAG	9150 fluorescence intensity (a.u.)
GAGCAATTAGGCTTAAAAGATTCGTCTCGCAAATTAGTCGCGGAGTCACCTAGTGCAG	3540 fluorescence intensity (a.u.)
AGAGTTGTATATTATGATAATTTGTTTAATGATCAGTCTACGGAGTCACCTAGTGCAG	5020 fluorescence intensity (a.u.)
CGGCTGAATTGACTAAATTGGCTAATTTGGGACATCTCAACGGAGTCACCTAGTGCAG	33300 fluorescence intensity (a.u.)
CAAATTAGATTGATTTGGTTAGATTGGATGTTTACCTTTACGGAGTCACCTAGTGCAG	50300 fluorescence intensity (a.u.)
CACGTGATAGATTTCCTTAACGTACGCAGAAAATATCCGTCGGAGTCACCTAGTGCAG	22900 fluorescence intensity (a.u.)
CAAAATTAGCCATATCAAAACTTGCCAAAATTTGGCATTGCGGAGTCACCTAGTGCAG	6390 fluorescence intensity (a.u.)
AATGATAATTAAAGGTTACTTATAATTAGTGGGTACAAGTCGGAGTCACCTAGTGCAG	27100 fluorescence intensity (a.u.)
TATTCCTGCAATTTAAACTAAATAATTTTCGTGTGGTGTACGGAGTCACCTAGTGCAG	3320 fluorescence intensity (a.u.)
ATCATAGTACTGATGCATGATTGAAACAGCTAAGAACTTGCGGAGTCACCTAGTGCAG	12700 fluorescence intensity (a.u.)
CCATATAATTATGCTTGTTATTATGTGACAAAGAGCGGGTCGGAGTCACCTAGTGCAG	25400 fluorescence intensity (a.u.)
GGAGAGCAATCAAGCGAAATTGACACGTGTCACGGCAGTGCGGAGTCACCTAGTGCAG	30300 fluorescence intensity (a.u.)
TATAAATAAATTAACTTTTCAATTTTACAATAATTAAAACCGGAGTCACCTAGTGCAG	13900 fluorescence intensity (a.u.)
CCCTGATTTCCACACGCACGCTTCCTAAACTGTTAAACGGCGGAGTCACCTAGTGCAG	18100 fluorescence intensity (a.u.)
TCTTTGATTACAATGGAGTCCACCAAGGTCTCGGCGATGCCGGAGTCACCTAGTGCAG	25000 fluorescence intensity (a.u.)
